Assay results taken from ChEMBL document CHEMBL4888484, “Replenishing the malaria drug discovery pipeline: Screening and hit evaluation of the MMV Hit Generation Library 1 (HGL1) against asexual blood stage Plasmodium falciparum ,using a nano luciferase reporter read-out” (2022).
The whole screen tested about 150,000 compounds, of which about 540 (0.36%) showed an effect of 50% or more. This is one part of the list.

These molecules were tested on Plasmodium falciparum (assay: Primary screen in NF54 nanoGlo assay, in single point, at 2uM, 72h; a lower Z score goes with more inhibition). Settings: timepoint 72 hour.
Format: functional, Erythrocyte

Compound | % Inhibition | Z score
CC(=O)[C@H](C)n1c(=O)c2c(nc3n2CCCCN3c2ccc(Oc3ccccc3)cc2)n(C)c1=O | 16% | -1.86
CC(=O)N1CCC[C@@H]1C(=O)N1Cc2cnn(-c3ccccc3)c2C1 | 7% | -1.1
Cc1nccn1[C@@H](C)CC(=O)NCCc1cnn(C)c1 | -8% | 1.06
Cn1cc2c(NCC3CC4C=CC3CC4)ncnc2n1 (configuration not stated) | 2% | -0.36
CCOC(=O)C[C@H](NC(=O)c1cccc2c1C(=O)N(C1CCCCC1)C2)c1ccc(OC(C)C)cc1 | -9% | 1.24
O=C1CC2(CCN(C3CCN(c4cccc(Cl)c4)CC3)CC2)CN1 | -23% | 4.34
CCN(CC)CCCC1CCN(C(=O)C(F)(F)c2ccccn2)CC1 | -2% | 0.22
O=C(NC1CCC(Oc2ncccc2Cl)CC1)c1cc[nH]n1 (configuration not stated) | -5% | 0.47
CN(C)c1nc(N)cc(-c2ccc(-n3cccn3)cc2)n1 | -1% | 0.21
Cc1c(CCNC(=O)N2CCC[C@@H]2C(N)=O)c2cccc3c2n1CCC3 | -15% | 1.74
c1ccc2c(-c3cnnc(N4CCN5CCC[C@H]5C4)n3)cccc2c1 | -18% | 2.65
C[C@H]1CCCN(Cn2nnc3ccccc32)C1 | -29% | 3.37
CN(C)[C@H]1CCc2ccccc2N(Cc2nnn(C(C)(C)C)n2)C1 | 6% | -1.03
Cc1cc(CN2CCN(C(=O)NCc3ccncc3)CC2)on1 | -8% | 0.71
Cc1ccc(C(=O)O)c(N2CC[C@@]3(CCCN(C4CCCCC4)C3=O)C2)n1 | -1% | 0.13
Cc1cccc(C(=O)N2CCC(CC3CC3)(c3noc(C4CCOCC4)n3)CC2)n1 | -13% | 1.73
Cc1n[nH]cc1CNC(=O)C[C@@H]1C=CCC1 | -12% | 1.2
Cc1ccc(-c2nc(N)c(C#N)c(-c3cn(CCO)nc3C)c2C)cc1 | 4% | -0.76
Clc1cc2c(cc1Br)CCN2 | 3% | -0.46
Cc1nc(CC(=O)Nc2nc(-c3ccc(OC(C)C)cc3)cs2)cs1 | -15% | 1.32
CCOc1cccc(N2C(=O)CC(N3CCN(C4CC(=O)N(c5cccc(OCC)c5)C4=O)CC3)C2=O)c1 (configuration not stated) | -9% | 1.18
Cc1ccc([C@H](C)NC(=O)NCC(=O)NCC2CC2)cc1F | -1% | 0.13

Compound | % Inhibition | Z score
CO[C@@H](CS(=O)(=O)Nc1c(C)cc(C)cc1C(=O)O)C(C)C | -6% | 0.98
FC(F)CN1CCC(N[C@H]2CCCc3sccc32)CC1 | -13% | 1.73
Cc1nc2c(s1)c(C)nn2-c1ccccc1 | 8% | -1.35
Cc1ccc(Nc2nc(NCCCOC(C)C)nc3[nH]nnc23)cc1 | -8% | 1.24
CN(Cc1[nH]c2ccccc2c1Cl)C[C@H]1CCOC1 | -9% | 1.54
O=C(c1nc2ccccc2[nH]1)N1C[C@@H]2CC[C@H]1CN(Cc1ccccc1)C2 | -7% | 1.39
Cc1nnc2n1C[C@@H](Nc1ncc(C(F)(F)F)cc1Cl)CC2 | -10% | 1.13
O=c1n(Cc2ccccc2)c2ccncc2n1Cc1ccccn1 | 6% | -0.84
Cc1ccc(S(=O)(=O)Nc2nc(C)c(C)c(=O)[nH]2)cc1 | -2% | 0.28
CC(C)(C)NC(=O)N1CC[C@H](n2c(-c3ccco3)nc3cccnc32)C1 | -16% | 1.79
Cc1ccccc1OC1CN(Cc2cncn2C)C1 | 1% | -0.15
CCn1c(-c2cc(NC(=O)c3cccs3)[nH]n2)cc2ccc(OC)cc21 | 12% | -1.34
Cc1ccccc1[C@H]1CN(C2CCCC2)C[C@@H]1C(=O)O | 1% | -0.1
Cc1ccc(C(=O)N2CCC(c3n[nH]c(=O)o3)CC2)nn1 | -8% | 0.92
CCCc1nc(C(C)(C)NC(=O)c2sc(-c3ccc(OC)c(OC)c3)nc2C)no1 | -10% | 1.09
CCN(CC(N)=O)C(=O)[C@H](C)c1ccc(OC)cc1 | -10% | 1.32
CCc1cc(CN2C[C@H](NC(=O)C3CCOCC3)[C@@H](C3CC3)C2)on1 | -14% | 1.39
COCCC1(NC(=O)c2ccccc2)CCN(S(=O)(=O)c2cccnc2)CC1 | -8% | 0.96
COc1ccc(CC(=O)N2CCC3(CC2)C[C@@H]3NS(C)(=O)=O)cc1 | -11% | 1.41
Cc1cc(C(=O)N[C@@H](Cc2ccncc2)C(=O)O)c(C)s1 | -10% | 1.29
CC(C)OCCC(=O)NC[C@H]1CCC=CO1 | -14% | 2.72
O=C(CN1CCC[C@H]1c1nc2ccccc2s1)NCc1ccc2c(c1)OCO2 | -5% | 0.7

Compound | % Inhibition | Z score
Cc1n[nH]nc1C(=O)NCc1cnn(C(C)C)c1 | 0% | 0.03
CO[C@H]1CC[C@H](NC(=O)c2ccc(Cl)c(F)c2)CC1 | -3% | 0.54
Cc1ccc2c(c1C)NC1(CCCCC1)C[C@@H]2C | -5% | 0.41
CCN(CC(F)(F)F)C(=O)CN1C(=O)OC[C@@H]1c1ccccc1 | 1% | -0.23
O=C1[C@@H](n2ccnn2)CCN1c1c(F)cccc1F | 13% | -1.68
Cc1c(C(=O)N2C[C@H]3CCC[C@@H](C3)C2)ccn1C | -11% | 1.74
O=C(NC1CC2CCC(C1)S2(=O)=O)c1ccc(Cl)o1 (configuration not stated) | -19% | 2.01
Cc1cc(C(=O)N2CC(C)(C)CC[C@@H]2CO)n2nc(C)cc2n1 | -18% | 1.95
Cc1cn2cnc(/N=C(/NCCO)Nc3ccccc3)c2c(=O)n1C | 6% | -0.74
CC(C)(C)c1cc(C(=O)Nc2ncc(C3CCNCC3)s2)no1 | -2% | 0.32
Cc1nc(CCN2CCC[C@H]2c2ccccc2)cs1 | -17% | 2.44
COc1ccccc1Cn1cnc2cc(C(=O)N3CC[C@@](F)(CO)C3)ccc21 | -5% | 0.94
CC(C)[C@H](Nc1ccc2cc[nH]c2n1)c1nccn1C | -14% | 1.2
O=C1CC[C@@H](C(=O)N2CCN(CCCOCC(F)(F)F)CC2)N1 | -7% | 0.69
COc1ccc2oc(CNC(=O)Cn3cc(C)cn3)nc2c1 | -16% | 2.01
O=C(NCc1nnc2n1CCC2)c1ccccc1OC[C@H]1CCCO1 | 6% | -0.77
O=C(Nc1cc(F)c(F)c(F)c1)N1CCC[C@H](n2nccc2C(F)(F)F)C1 | -1% | 0.06
Fc1ccc(CN2CC[C@H](c3nnc(Cc4ccccc4)o3)C2)cc1F | 27% | -3.08
COc1ccc(CNC(=O)N(C)CC(C)C)c(OC)c1 | 0% | 0.03
CCc1nn(Cc2nsc3ccccc23)c(=O)c(C#N)c1CC | -4% | 0.65
CCOC(=O)c1cnn(-c2cccc(C)c2C)c1CN1CCC[C@H](c2nncn2C)C1 | 8% | -0.95
CN(c1cc(C(=O)NCCC2=CCCCC2)c2ccccc2n1)C1CCCCC1 | -5% | 0.65

Compound | % Inhibition | Z score
COc1cccc(C(=O)N2CCN(C(=O)Cc3cnc(C)[nH]c3=O)CC2)c1 | -20% | 2.57
Cc1cc(NC(=O)COc2ccc(F)cc2)n(Cc2cccc3ccccc23)n1 | -6% | 0.84
Cc1noc(OCc2c(C)noc2C)n1 | 6% | -1.13
Cc1nc2ccc(CNC(=O)[C@H](N)c3c(C)n[nH]c3C)cc2[nH]1 | -7% | 1.47
CC1=C(C(=O)NCc2ccccc2)[C@H](c2cccc(F)c2)n2nnnc2N1 | -13% | 1.69
COc1cc(NC(C)=O)c(-c2c(NC(C)=O)cc(OC)c(OC)c2OC)c(OC)c1OC | -8% | 1.42
COc1ccc([C@H]2C[C@@H]2CC(=O)NCc2cncc(O)c2)cc1 | -2% | 0.24
Cc1csc(NC(=O)CCc2cccs2)n1 | -14% | 2.63
COc1cncc(O[C@H]2CCN(C(=O)N3CCOCC3)C2)n1 | -6% | 0.92
O=C(CCCN1CCOCC1)NCC1(CO)CCC1 | 1% | -0.17
CCN(CC(F)(F)F)C(=O)NCc1cnc(C)c(C)c1 | 7% | -0.98
CC(C)NC(=O)CNC(=O)N1CC(C)(C)[C@H]1c1ccncc1 | 4% | -0.45
C[C@@H]1CN(Cc2nnnn2CC(=O)N(C)Cc2cc3cc(F)ccc3[nH]2)C[C@H](C)O1 | -3% | 0.49
O=C(O)CCN(CC1CC1)C(=O)c1noc2c1CCCC2 | -2% | 0.28
Cc1ccc(C[C@H](C)NC(=O)C2(N)CC(O)C2)c(C)c1 (some centres not stated) | 28% | -3.6
N#Cc1cc(N2CCN(c3ncc[nH]3)CC2)nc2ccc(Cl)cc12 | 1% | -0.07
CCC[C@H]1CN(Cc2cnc(C)n2C)C[C@@H]1NC(=O)C1CCC1 | -10% | 1.93
Cc1ncsc1CN(C)C(=O)N[C@@H](C)c1cnn(C)c1 | -2% | 0.24
COCCNC(=O)CCNc1ncc(Cl)cc1F | -9% | 1.17
C[C@]1(O)CCN(C(=O)c2ccc3c(c2)CCCC3)C[C@H]1O | -6% | 1.14
